# Reference: patent US8071103B2, “Pharmaceutical composition comprising a human GLP-1 mimetibody” (Centocor, Inc., priority 2006, dated 2011)
# B1: GLP-1 MMB of SEQ ID NO: 69: wild-type GLP-1 sequence incorporated into a mimetibody scaffold (protein)
# chain: HAEGTFTSDVSSYLEGQAAKEFIAWLVKGRGGGSGGGSGTLVTVSS[human IgG4 Fc with S228P F234A L235A (EU numbers) omitted]
# Legend:
# DPP-IV = molecular target: T1, DPP-IV (Homo sapiens, UniProt P27487); test: DPP-IV cleavage assay; type: in vitro ADME; details: 1.2 nM, DPP-IV 1 μg/mL, room temperature, 0-40 minutes
# T1 construct: purchased R&D Systems
# Experimental: DPP-IV cleavage assay. Since GLP-1 is rapidly inactivated by DPP-IV, an in vitro assay was established to quantitate intact (i.e. uncleaved) GLP-1 MMB of SEQ ID NO: 69. Briefly, GLP-1 MMB of SEQ ID NO: 69 or peptide (1.2 nM) was incubated at room temperature with DPP-IV (1 μg/mL, R&D Systems). After various times (0, 5, 10, 15, 20, 30, 40 minutes), a DPP-IV inhibitor (100 μM, Linco) was added to quench the reaction. The amount of intact GLP-1 MMB of SEQ ID NO: 69 or peptide was measured using the GLP-1 Active ELISA (Linco) and the GLP-1 MMB of SEQ ID NO: 69 or peptides for the respective standard curves.
# GLP-1R = molecular target: T2, GLP-1R (Homo sapiens, UniProt P43220); test: FACS binding assay; details: flow cytometry
# T2 construct: expressed in transfected cells; host or cells: HEK293
# Experimental: FACS Binding Assay. The activity of a GLP-1 mimetibody was tested in an in vitro FACS binding assay. To determine whether the GLP-1 MMB binds the GLP-1R, HEK293 cells (1×10^6 cells) over-expressing the GLP-1 R were incubated with GLP-1 MMB of SEQ ID NO: 69 (20 nM) for 2 hours at 4° C. The cells were washed, and a fluorescently labeled secondary detection antibody (1 μg/mL goat anti-human IgG, Fc gamma specific) was added for 30 minutes at 4° C. The fluorescence intensity of the cells was monitored via flow cytometry.
# T1 sequence (P27487 whole entry, species assumed): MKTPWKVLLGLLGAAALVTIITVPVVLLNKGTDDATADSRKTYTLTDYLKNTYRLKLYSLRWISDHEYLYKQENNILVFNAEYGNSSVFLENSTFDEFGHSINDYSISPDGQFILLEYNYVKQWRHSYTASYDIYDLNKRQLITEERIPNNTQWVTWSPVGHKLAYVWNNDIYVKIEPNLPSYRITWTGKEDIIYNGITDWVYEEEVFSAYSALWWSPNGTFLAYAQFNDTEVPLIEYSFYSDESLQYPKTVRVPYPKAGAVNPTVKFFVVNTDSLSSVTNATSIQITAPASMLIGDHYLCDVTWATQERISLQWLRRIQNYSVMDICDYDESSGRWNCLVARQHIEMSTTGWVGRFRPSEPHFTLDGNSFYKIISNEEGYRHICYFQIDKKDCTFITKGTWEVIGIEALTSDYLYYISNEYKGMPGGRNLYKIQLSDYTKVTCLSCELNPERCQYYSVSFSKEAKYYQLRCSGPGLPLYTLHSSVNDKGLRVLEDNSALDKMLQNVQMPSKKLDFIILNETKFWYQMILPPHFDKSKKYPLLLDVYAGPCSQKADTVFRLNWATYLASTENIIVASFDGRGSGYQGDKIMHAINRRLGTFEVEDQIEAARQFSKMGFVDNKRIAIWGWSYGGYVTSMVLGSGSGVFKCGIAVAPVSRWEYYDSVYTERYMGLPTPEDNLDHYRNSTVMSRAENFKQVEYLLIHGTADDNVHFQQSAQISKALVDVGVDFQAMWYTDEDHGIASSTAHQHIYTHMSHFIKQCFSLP
# T2 sequence (P43220 24-463, species assumed): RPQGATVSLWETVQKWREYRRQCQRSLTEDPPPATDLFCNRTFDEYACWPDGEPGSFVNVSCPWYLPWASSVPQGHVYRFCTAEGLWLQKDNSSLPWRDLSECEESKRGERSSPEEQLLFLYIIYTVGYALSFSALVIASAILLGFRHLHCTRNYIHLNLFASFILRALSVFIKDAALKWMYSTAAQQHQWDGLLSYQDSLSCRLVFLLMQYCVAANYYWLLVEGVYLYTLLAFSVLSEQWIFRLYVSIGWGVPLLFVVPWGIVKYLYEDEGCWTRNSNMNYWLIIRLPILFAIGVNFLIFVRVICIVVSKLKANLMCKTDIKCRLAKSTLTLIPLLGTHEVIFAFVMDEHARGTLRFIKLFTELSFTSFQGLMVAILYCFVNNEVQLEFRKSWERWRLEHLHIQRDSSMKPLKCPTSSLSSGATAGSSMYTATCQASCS
molecule,measurement,setting,value
B1,resistance to cleavage by DPP-IV relative to the GLP-1 peptide,DPP-IV,significantly more resistant
same,binding to control HEK293 cells,GLP-1R,does not bind
